The values below come from PMC4336329 (PLoS ONE, 2015).

SMILES strings stand for the structures. Hit rate of the full screen: of about 310,000 compounds, about 14,000 (4.5%) showed an effect of 50% or more. The effect is printed as a negative number. The list shows a part of the results.
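Also: peak tail current of the secondary pulse compared with the same well before compound.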

Chain of human ether-à-go-go-related gene (hERG) potassium channel (Q12809 whole entry, looked up): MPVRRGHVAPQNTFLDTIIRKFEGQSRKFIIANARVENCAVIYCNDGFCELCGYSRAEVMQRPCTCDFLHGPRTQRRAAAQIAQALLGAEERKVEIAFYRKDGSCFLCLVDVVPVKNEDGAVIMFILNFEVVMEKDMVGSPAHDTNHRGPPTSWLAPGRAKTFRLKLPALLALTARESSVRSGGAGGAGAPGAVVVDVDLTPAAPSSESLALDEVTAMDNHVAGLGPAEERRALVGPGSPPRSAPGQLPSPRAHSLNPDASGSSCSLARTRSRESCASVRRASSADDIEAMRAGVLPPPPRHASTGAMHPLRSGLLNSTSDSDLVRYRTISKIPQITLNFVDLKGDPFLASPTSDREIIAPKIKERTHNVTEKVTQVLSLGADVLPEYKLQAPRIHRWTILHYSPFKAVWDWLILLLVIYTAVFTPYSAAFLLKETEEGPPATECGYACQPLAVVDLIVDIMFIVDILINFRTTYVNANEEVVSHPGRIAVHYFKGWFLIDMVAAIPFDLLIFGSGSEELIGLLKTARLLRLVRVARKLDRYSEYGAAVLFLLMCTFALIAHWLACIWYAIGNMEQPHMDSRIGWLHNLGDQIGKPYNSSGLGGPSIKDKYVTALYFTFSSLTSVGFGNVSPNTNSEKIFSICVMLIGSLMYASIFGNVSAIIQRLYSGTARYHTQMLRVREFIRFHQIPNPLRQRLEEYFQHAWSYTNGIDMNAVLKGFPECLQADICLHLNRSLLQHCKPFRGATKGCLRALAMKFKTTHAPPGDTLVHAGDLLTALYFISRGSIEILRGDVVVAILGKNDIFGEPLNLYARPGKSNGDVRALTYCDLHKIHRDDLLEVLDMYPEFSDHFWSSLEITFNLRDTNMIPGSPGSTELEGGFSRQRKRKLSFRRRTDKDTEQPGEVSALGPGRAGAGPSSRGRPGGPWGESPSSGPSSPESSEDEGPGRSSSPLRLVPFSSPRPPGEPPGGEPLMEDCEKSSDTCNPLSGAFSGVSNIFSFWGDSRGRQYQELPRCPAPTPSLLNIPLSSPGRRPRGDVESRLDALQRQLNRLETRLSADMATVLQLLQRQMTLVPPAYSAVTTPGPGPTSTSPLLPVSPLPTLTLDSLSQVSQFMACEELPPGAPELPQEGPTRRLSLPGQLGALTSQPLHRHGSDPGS

This assay concerns the target human ether-à-go-go-related gene (hERG) potassium channel (human, UniProt Q12809). In words: primary screen, population patch clamp on CHO cells stably expressing hERG.
As to `O=C(CN1C(=O)COc2ccc(Cl)cc21)N1CCc2ccccc21`, the “hERG current change (%, negative = inhibition) at 10uM” value is -1.33%.

For `Nc1nc(-c2ccco2)nn1C(=O)CCc1ccccc1`, the “hERG current change (%, negative = inhibition) at 10uM” value is recorded as -0.902%.

As to `O=C(CNC(=S)N(Cc1ccccc1)Cc1cccnc1)N1CCOCC1`, the “hERG current change (%, negative = inhibition) at 10uM” value came out at 54.9%.

For the molecule `CCOc1ccc(NC(=O)Cc2c(C(=O)O)n(C)c3ccccc23)cc1`, the “hERG current change (%, negative = inhibition) at 10uM” value came to 20.5%.

`CCCn1nnc(NC(=O)C(c2ccccc2)c2ccccc2)n1`: the “hERG current change (%, negative = inhibition) at 10uM” value is reported as 4.18%.

Regarding `O=C(NCc1cccs1)c1nc2ncccn2n1`, the “hERG current change (%, negative = inhibition) at 10uM” value came out at 4.4%.

Turning to `O=C1CC(C(=O)N2CCN(S(=O)(=O)c3cccc(F)c3)CC2)CN1Cc1ccccc1Cl` (stereo not drawn), the “hERG current change (%, negative = inhibition) at 10uM” value is -9.24%.

For `COc1ccc(NC(=O)CC2C(=O)N(C)C(=S)N2Cc2ccc3c(c2)OCO3)cc1` (stereo not drawn), the “hERG current change (%, negative = inhibition) at 10uM” value is recorded as -29.1%.

As for `N#CC1CCN(C(=O)c2ccc3c(Cl)c4c(nc3c2)CCCC4)CC1`, the “hERG current change (%, negative = inhibition) at 10uM” value is reported as -12.6%.

As for `N#CCCN(C1CCCCC1)S(=O)(=O)CCOc1ccccc1`, the “hERG current change (%, negative = inhibition) at 10uM” value is -6.01%.

`COc1ccc(NC(=O)c2cccc(S(=O)(=O)N3CCOCC3)c2)cc1`: the “hERG current change (%, negative = inhibition) at 10uM” value is listed as -15.9%.

On to `CCOC(=O)N1CCN(C(=O)C2CCCN(c3ncnc4c3nc3n4CCCCC3)C2)CC1` (stereo not drawn), for which the “hERG current change (%, negative = inhibition) at 10uM” value is recorded as -22.9%.

For `CCOC(=O)N1CCN(C(=O)c2ccc3c(c2)N(C)C(=O)/C(=C\c2ccc(OCC)c(OC)c2)S3)CC1`, the “hERG current change (%, negative = inhibition) at 10uM” value was -32.5%.

On to `COc1ccc2cc(CN(Cc3ccco3)C(=S)NCC3CCCO3)c(=O)[nH]c2c1` (stereo not drawn), for which the “hERG current change (%, negative = inhibition) at 10uM” value amounted to 12.5%.

Take `COc1ccc(/C(C)=N/N=C2/NC(=O)CC(C(=O)O)S2)cc1` (stereo not drawn): the “hERG current change (%, negative = inhibition) at 10uM” value is on record as -4.66%.

Consider `CCOC(=O)c1ccc(N2CN(CCc3ccccc3)CNC2=S)cc1`, for which the “hERG current change (%, negative = inhibition) at 10uM” value is 6.21%.

For the molecule `Cc1c2cnn(CC(=O)N3CCN(c4ncccn4)CC3)c(=O)c2c(C)n1Cc1ccc(F)cc1`, the “hERG current change (%, negative = inhibition) at 10uM” value is reported as 15.4%.

As to `COc1ccc(S(=O)(=O)c2c(O)c3ccc(C(=O)Nc4ccc(F)cc4)cc3[nH]c2=O)cc1`, the “hERG current change (%, negative = inhibition) at 10uM” value came to 1.4%.

For `COc1ccc(C)cc1Nc1n[n+](-c2ccccc2)c(-c2ccc(N(C)C)cc2)s1.[Cl-]`, the “hERG current change (%, negative = inhibition) at 10uM” value is recorded as -49.3%.

For the molecule `CCN(CC)S(=O)(=O)c1ccc(Cl)c(C(=O)N2CCc3ccccc32)c1`, the “hERG current change (%, negative = inhibition) at 10uM” value is -44.8%.

For `CCN(CCCNC(=O)Cn1ncc2c([nH]c3ccc(C)cc32)c1=O)c1cccc(C)c1`, the “hERG current change (%, negative = inhibition) at 10uM” value is recorded as 21.3%.

Consider `COc1ccc(NC(=O)CSc2nc(O)c(Cc3ccccc3)c(=O)[nH]2)cc1`, for which the “hERG current change (%, negative = inhibition) at 10uM” value is listed as 7.34%.

For the molecule `O=C(NC1=NCCS1)c1ccc(-c2ccc(Cl)cc2)o1`, the “hERG current change (%, negative = inhibition) at 10uM” value is reported as -18.6%.

In the case of `O=C(C1=C[C@H](C2CC2)C[C@H](OCc2ccc(CO)cc2)O1)N1CCN(Cc2ccccc2)CC1`, the “hERG current change (%, negative = inhibition) at 10uM” value was -62.7%.

For `COc1ccc(N/C(=C2\CCCC2=O)C2CCCCC2)cc1`, the “hERG current change (%, negative = inhibition) at 10uM” value is given as -19.7%.

For `CC(OC(=O)CNC(=O)C12CC3CC(CC(C3)C1)C2)C(=O)Nc1ccc(N2CCOCC2)cc1` (stereo not drawn), the “hERG current change (%, negative = inhibition) at 10uM” value was determined as 2.32%.

In the case of `O=C(CCC1N=C2c3ccccc3N=C(SCc3ccccc3Cl)N2C1=O)NCc1ccco1` (stereo not drawn), the “hERG current change (%, negative = inhibition) at 10uM” value is -32.4%.

Regarding `COc1cccc(CC(NC(C)=O)C(=O)NC2CCN(c3nc(C)cc(C)c3C#N)CC2)c1OC` (stereo not drawn), the “hERG current change (%, negative = inhibition) at 10uM” value is given as -11.7%.

As for `O=C(O)c1cc(N/N=C/c2cccc3ccccc23)ccc1Cl`, the “hERG current change (%, negative = inhibition) at 10uM” value was 8.05%.

On to `CCSc1ncc(Cl)c(C(=O)Nc2ccc(S(N)(=O)=O)cc2)n1`, for which the “hERG current change (%, negative = inhibition) at 10uM” value was -1.66%.

For the molecule `N#Cc1ccccc1OCC(=O)NCC(c1ccc(F)cc1)N1CCOCC1` (stereo not drawn), the “hERG current change (%, negative = inhibition) at 10uM” value was -11.4%.

`CC(C)N(C(=NCc1ccccc1)NC(=O)c1ccccc1)C(C)C`: the “hERG current change (%, negative = inhibition) at 10uM” value is -12.7%.

On to `O=C(CC1CCCCC1)NCCOc1ccccc1`, for which the “hERG current change (%, negative = inhibition) at 10uM” value is listed as -4.32%.

Regarding `C/C(=N\Nc1cccc(C(F)(F)F)c1)c1ccc(O)cc1`, the “hERG current change (%, negative = inhibition) at 10uM” value is on record as 0.916%.

As to `O=C(Cc1ccccc1)Nc1ccc(NC(=O)c2ccccc2)nc1`, the “hERG current change (%, negative = inhibition) at 10uM” value came out at 3.23%.

Turning to `O=C(N1CCN(c2ccccc2F)CC1)C1(S(=O)(=O)c2ccc(Cl)cc2)CC1`, the “hERG current change (%, negative = inhibition) at 10uM” value was found to be 9.2%.

`FC(F)(F)c1cc(CCN2CCNC[C@@H]2Cc2ccccc2)cc(C(F)(F)F)c1`: the “hERG current change (%, negative = inhibition) at 10uM” value was -11.6%.

In the case of `CC(NC(=O)c1ccccc1F)C(=O)O` (stereo not drawn), the “hERG current change (%, negative = inhibition) at 10uM” value was 16.7%.

Consider `CCc1ccc(CN(C)Cc2nc(-c3cccc(Cl)c3)no2)nc1`, for which the “hERG current change (%, negative = inhibition) at 10uM” value is -19.9%.

Turning to `Cc1cc(NC(=O)CSc2nncn2N)no1`, the “hERG current change (%, negative = inhibition) at 10uM” value is recorded as 17.5%.

Consider `CCOc1ccc(CCNc2nc3ccc(C)cc3n3cnnc23)cc1OCC`, for which the “hERG current change (%, negative = inhibition) at 10uM” value is on record as -25.2%.

`O=P1(Oc2ccccc2)CC=C[C@H](COCc2ccccc2)O1` (stereo partly drawn): the “hERG current change (%, negative = inhibition) at 10uM” value amounted to 19.5%.
